± gives the standard deviation of the averaged measurements. This is one part of the list.
These sequences were tested on PfAP2-LT AP2 domain (GST-tagged) (assay: gcPBM binding intensity (ln(normalized median fluorescence intensity)); higher = stronger DNA binding).
Summary of the method: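 Binding of GST-tagged P. falciparum DNA-binding domains, expressed in E. coli and used at about 25 μg on average, was carried out for 1 h in 1× PBS containing 1% milk, 0.2 mg/ml BSA, 0.5% salmon testes DNA and 0.03% Triton X-100. The target was an Agilent 4 × 180k array of primer-extended double-stranded 36-bp intergenic genomic probes plus negative controls, read with Alexa488 anti-GST antibody at 488 nm. Binding intensity is the highest Masliner-normalised natural-log median intensity across replicate spots of either probe orientation.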

Sequence	gcPBM binding intensity (ln)
GTAATTAAAATATATACACACAAAGGCTATTAAATA [CACACA_site1011]	8.94 ± 0.44
ATTTATGAAAGAAATAGTACACACATAAACATTTGT [XGTACX_site5862]	9.03 ± 0.36
TATATAAAATATTAATGTACATATAAATATATATAT [XGTACX_site6656]	8.66 ± 0.4
AATTATATATTAAAAAGTACAAGTTAATATAATATA [XGTACX_site2737]	8.57 ± 0.47
ATATAAAAAAATTGCACACATAAATATATACATATA [CACACA_site1218]	8.96 ± 0.39
GATACATAGAAACACACACACATACATATATACATA [CACACA_site3438]	9.92 ± 0.26
TTTATGTACAGACATATACACACCTCTATAATATAT [CACACA_site730]	8.99 ± 0.4
TCACAAAAAGAACATTGATATTATTATAAAATCGTC [GTGCAC_negctrl_site177]	8.65 ± 0.43
TTACAAAAATTTTGTTCACACATAAAAATATGTTAC [CACACA_site5740]	8.59 ± 0.39
TAATAAATTATTTTTTATTATTTTAATAACACTTCA [CACACA_negctrl_site3]	8.4 ± 0.49
ATATATTTTTCAAAATGTACAAATAATTAAATACCA [XGTACX_site875]	8.52 ± 0.33
ATTAATAATCGAAAGGTGCACTTTGATTTGATAACA	8.79 ± 0.49
TAATTAAAATTATTTATAAATTAGTATATTTCTATA [CACACA_negctrl_site663]	8.27 ± 0.57
TTATTATTTTATCGTAGTACACCTAAATTATAAAAC [XGTACX_site5251]	8.46 ± 0.46
TTAGTAAATACATTTGCACACATTATTTTTTAACAT [CACACA_site5448]	9.14 ± 0.45
TTTCAAAATTTTTATTTTAAATAAACATTTATAAAA [CACACA_negctrl_site1588]	7.91 ± 0.47
ATTTATTTATTTATATGTACTTAAATGAAAGGAATA [XGTACX_site6024]	8.31 ± 0.3
ATATGGCACATATGTACACACGTATAGATAATATTA [CACACA_site5162]	9.23 ± 0.45
CCGATATAATGGAAAACACACAAAAGATATATATAT [CACACA_site2683]	9.2 ± 0.42

Sequence	gcPBM binding intensity (ln)
ACATACATTTTTAAATGTACATATATATATATATAT [XGTACX_site6751]	9.525 ± 0.078
AATATTATATGGACGTGTCCACATAAACCTATATAT [XGTACX_site2053]	8.87 ± 0.42
GGAAATATAAAATCATGTACATATGTATATATAATT [XGTACX_site5491]	8.97 ± 0.5
ATGAATATATATATTTGTACATATGTATATATATAT [XGTACX_site7527]	8.91 ± 0.36
TATATATTTTTTTCATGTACTTATTATATATATATA [XGTACX_site5321]	8.79 ± 0.44
AGTATAGATGTATACACACACCAAACGTTAAAAAAA [CACACA_site7443]	9.39 ± 0.51
TATCATCATGTATGTACACACATACAGATATTATGT [CACACA_site4888]	9.23 ± 0.42
AAATACAAAATTGTTACACACATATTAATTATGACA [CACACA_site476]	8.87 ± 0.4
TATATTTTAAAATTATGTACATATATAGATAAATGT [XGTACX_site1349]	8.57 ± 0.43
ATATAAATATAGTGTGCACACACATAATATATATAT [CACACA_site8713]	9.6 ± 0.28
ATATATATATATAATACACACATCATAAAATATGTA [CACACA_site2518]	9.06 ± 0.35
AAAATAAATTGTGAAGGTACACAAATTATTATGTGG [XGTACX_site4196]	8.85 ± 0.47
TCGATATATAGACACACACACTTTTAATAATTAAAT [CACACA_site7726]	9.37 ± 0.38
TACAAACAGACATATACACACAAAAAAAAAATAAAA [CACACA_site2562]	9.16 ± 0.43
TTATGCAGATAAAAGAGTACATATTCGTTACATACA [XGTACX_site2849]	8.77 ± 0.43
AATCATATTTAGATTACACACAGTTTAAATATTTTA [CACACA_site1263]	8.64 ± 0.4
TATATATATATATATATATATATATATATAATATTA [XGTACX_negctrl_site558]	9.245 ± 0.035
TATTTAAATGGATGCACACATGCATTAAATAAAATA [CACACA_site3433]	8.81 ± 0.45
TGTAATGTTTACAACACACAAATTATAAATACAAAA [CACACA_site5047]	8.87 ± 0.44

Sequence	gcPBM binding intensity (ln)
CTATATCATTTTCTAGCACACACATTGTTATTACCT [CACACA_site8204]	9.48 ± 0.44
GAATATAAACCTATTACACACATCTATATGTACATT [CACACA_site1914]	9.19 ± 0.44
TTTTTTATGCTAACTTCTTTTTCCTTATAAAATTGG [TGCATGCA_negctrl_site598]	8.44 ± 0.54
ATTTTTTTTATTATTACACACATATAACAAAAAAAT [CACACA_site6934]	8.69 ± 0.38
TATTTATAAATGAACACACACGCAATTTGAATCGAA [CACACA_site3371]	9.23 ± 0.3
ATATATATATTATATGCACACTTATATTTCATTAGA [CACACA_site5439]	8.8 ± 0.45
TTTTTATATTTCAACATATCACAATTTTATATATCT [CACACA_negctrl_site178]	8.63 ± 0.5
AACACATACAGATATGCACACATTTTATTCCATTAT [CACACA_site5565]	9.25 ± 0.3
TAAATATTAACAATCGCACACATATTATTTTTCCAA [CACACA_site1626]	8.91 ± 0.32
GAATATATATTCATATGTACACAATTTATGTATTAT [XGTACX_site4719]	8.96 ± 0.33
AAGGTAAACAGACACACACACATACAAAAAAAAAAA [CACACA_site3768]	9.84 ± 0.63
ATAATTCTTTTACTGTGTACATATTATCACTTATTT [XGTACX_site2456]	9.12 ± 0.47
CATTATGTTGTAAATACACACATACAGATACATACA [CACACA_site4565]	9.16 ± 0.36
TTTTTTGGTTTTCATGCACACAATTTATAAATCTAT [CACACA_site3106]	9 ± 0.45
ATATGCGTTTGCAAATGTACATATTATTTATATATA [XGTACX_site7128]	8.8 ± 0.34
TAAAGGCAAACAAACACACACACATAAATACAGATA [CACACA_site5204]	9.77 ± 0.3
TGGAAACAATGACACACACACAAAAAAAAAAAAAAA [CACACA_site7494]	9.44 ± 0.49
TTTTGTTTTTGTAGAGTGCATAAAGAAGATATGTAT	8.47 ± 0.37
TATAAATACTTAGAAACACACAAAAATATTTTATAA [CACACA_site7259]	8.64 ± 0.47
